Measured values as given in patent US20180312565A1 (Affibody, published 2018).
Where a chain is given by its changes, count along the chain named.

T1: human PD-L2 Fc Chimera (R&D Systems, cat. no. 1224-PL-100) (human, UniProt Q9BQ51 20-219, biotinylated in ELISA)
T1 construct: bought; also called hPD-L2; not shown: Fc part of the bought Fc chimera, not described
T1 sequence (looked up): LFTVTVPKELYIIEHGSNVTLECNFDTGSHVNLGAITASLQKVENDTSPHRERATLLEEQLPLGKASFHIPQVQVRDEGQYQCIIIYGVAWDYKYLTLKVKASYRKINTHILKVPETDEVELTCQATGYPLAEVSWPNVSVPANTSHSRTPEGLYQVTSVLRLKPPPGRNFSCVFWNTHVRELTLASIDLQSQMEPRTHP

T2: human B7-H3 Fc Chimera (R&D Systems, cat. no. 1027-B3-100) (human, UniProt Q5ZPR3-2 29-245, biotinylated in ELISA)
T2 construct: bought; also called hB7-H3; not shown: Fc part of the bought Fc chimera, not described
T2 sequence (looked up): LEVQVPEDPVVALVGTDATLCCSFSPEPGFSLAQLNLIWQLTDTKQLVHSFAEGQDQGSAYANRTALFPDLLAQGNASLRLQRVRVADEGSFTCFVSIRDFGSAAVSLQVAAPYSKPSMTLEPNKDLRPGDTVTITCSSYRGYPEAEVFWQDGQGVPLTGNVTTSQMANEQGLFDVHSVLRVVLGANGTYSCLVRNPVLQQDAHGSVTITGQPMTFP

T3: human B7-H4 (R&D Systems, cat. no. 6576-B7-50) (human, UniProt Q7Z7D3 29-258, biotinylated in ELISA)
T3 construct: bought; also called hB7-H4
T3 sequence (looked up): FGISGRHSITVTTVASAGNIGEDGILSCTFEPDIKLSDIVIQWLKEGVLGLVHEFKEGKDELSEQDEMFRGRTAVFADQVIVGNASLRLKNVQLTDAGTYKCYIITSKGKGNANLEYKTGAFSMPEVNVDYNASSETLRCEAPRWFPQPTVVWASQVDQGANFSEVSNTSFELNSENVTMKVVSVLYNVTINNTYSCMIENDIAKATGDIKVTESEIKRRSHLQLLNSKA

B1: His6-Z13080 (designed binder)
chain: MGSSHHHHHHLQVDAKYAKERNSAAEEILHLPNLTMQQLWAFIWKLDDDPSQSSELLSEAKKLNDSQAPKVD
B2: His6-Z13112 (designed binder)
chain: B1 chain with S23A, E26F, H30T, M36N, Q37E, L39H
B3: His6-Z13120 (designed binder)
chain: B1 chain with S23R, E26N, H30Q, M36K, Q37G, L39V
B4: His6-Z13147 (designed binder)
chain: B1 chain with S23R, E26Y, H30Q, M36H, L39T
B5: His6-Z13154 (designed binder)
chain: B1 chain with S23D, E26Y, H30Q, M36K, Q37R, L39V
B6: His6-Z13156 (designed binder)
chain: B1 chain with S23Q, E26V, H30Q, M36A, Q37A, L39Y
B7: His6-Z13158 (designed binder)
chain: B1 chain with S23D, E26F, H30Q, M36N, Q37S, L39H, D47E
B8: His6-Z13165 (designed binder)
chain: B1 chain with S23Y, E26W, H30R, M36A, Q37S, L39Y
B9: His6-Z13169 (designed binder)
chain: B1 chain with S23R, E26Q, H30V, M36R, Q37K, L39Q
B10: His6-Z13198 (designed binder)
chain: B1 chain with S23A, E26Y, H30T, M36N, Q37K, L39R
B11: His6-Z13304 (designed binder)
chain: B1 chain with S23N, E26S, H30A, M36Q, Q37L, L39Y, D47A
B12: His6-Z13088 (designed binder)
chain: B1 chain with S23N, E26T, H30R, M36A, Q37G, L39T
B13: His6-Z13164 (designed binder)
chain: B1 chain with S23N, E26Q, H30Q, M36Q, Q37L, L39R

What was measured:
[1] = molecular target: T4, PD-L1 on PD-L1 expressing cells (IFNg-stimulated THP-1 cells; MDA-MB-231 cells) (UniProt Q9NZQ7 19-290, limits assumed); assay: FACS, IFNg-stimulated THP-1 cells, 10 µg/ml, normalized to Z13091
T4 construct: whole, on cells
Procedure: Cells incubated with buffer alone were used as negative controls. […] Data from 10,000 cells were obtained using a FACS Calibur ([…]) and the data was analyzed using Flowing software 2.5.0 (Turku University). Mean fluorescence intensity (MFI) was used as a read out of binding capacity.

[2] = molecular target: T5, human PD-L1 Fc Chimera (R&D Systems, cat. no. 156-B7-100) (human, UniProt Q9NZQ7 19-239, biotinylated with Sulfo-NHS-LC-Biotin in ELISA and AlphaLISA; not biotinylated in SPR); assay: SPR, hPD-L1 immobilized
T5 construct: bought; also called hPD-L1; biotinylated hPD-L1; not shown: Fc part of the bought Fc chimera, not described
Procedure: (§1) One flow cell surface on each chip was activated and deactivated for use as blank during analyte injections. In the kinetic experiment, HBS-EP was used as running buffer and the flow rate was 50 μl/min. The analytes, i.e. the Z variants, were each diluted in HBS-EP buffer within a concentration range of 1000 to 0.01 nM and injected for 5 min, followed by dissociation in running buffer for 15-25 min. After dissociation, the surfaces were regenerated with one or two injections of 0.1% SDS. Kinetic constants were calculated from the sensorgrams using the Langmuir 1:1 model of BiaEvaluation software 4.1 (GE Healthcare).

[3] = molecular target: T1, human PD-L2 Fc Chimera (R&D Systems, …); assay: SPR
Procedure: as §1

[4] = molecular target: T2, human B7-H3 Fc Chimera (R&D Systems, …); assay: SPR
Procedure: as §1

[5] = molecular target: T5, human PD-L1 Fc Chimera (R&D Systems, …); assay: AlphaLISA, blocks hPD-L1 binding to hPD-1
Procedure: Finally, streptavidin coated Donor beads (Perkin Elmer, cat. no. 6772002) were added to a final concentration of 40 μg/ml and incubated for 30 min. All incubations were performed at RT in the dark. The plate was analyzed in the EnSpire instrument and the IC50 values were calculated using GraphPad Prism 5.

[6] = molecular target: T3, human B7-H4 (R&D Systems, cat. no. …); assay: SPR
Procedure: as §1

[7] = molecular target: T6, mouse PD-L1 Fc Chimera (R&D Systems, cat. no. 1019-B7) (mouse, UniProt Q9EP73 19-238); assay: SPR
T6 construct: bought; also called mPD-L1; not shown: Fc part of the bought Fc chimera, not described
Procedure: as §1

[8] = molecular target: T1, human PD-L2 Fc Chimera (R&D Systems, …); assay: SPR (Biacore 2000), hPD-L2 immobilized on CM5 chip, Z variant injected at 50, 5 and 0.5 nM
Procedure: as §1

[9] = molecular target: T2, human B7-H3 Fc Chimera (R&D Systems, …); assay: SPR (Biacore 2000), hB7-H3 immobilized on CM5 chip, Z variant injected at 50, 5 and 0.5 nM
Procedure: as §1

T6 sequence (Q9EP73 19-238, change not shown): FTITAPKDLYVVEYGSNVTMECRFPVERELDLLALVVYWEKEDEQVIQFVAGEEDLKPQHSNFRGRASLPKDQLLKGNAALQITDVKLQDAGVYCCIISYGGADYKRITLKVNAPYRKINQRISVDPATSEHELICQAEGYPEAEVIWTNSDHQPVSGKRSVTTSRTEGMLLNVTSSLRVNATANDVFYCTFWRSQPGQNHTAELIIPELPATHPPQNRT

Row | Binder | MFI (normalized) [1] | Kd [2] [nM] | koff [2] [s⁻¹] | kon [2] [M⁻¹ s⁻¹] | binding result [3] | binding result [4] | IC50 [5] [nM] | binding result [6] | binding result [7] | binding result [8] | binding result [9]
1 | B1 | 1.06 | 6.6 | 0.0092 | 1.4e+06 | no binding (tested: 50 nM) | no binding (tested: 50 nM) | 2.7 | – | – | – | –
2 | B2 | 0.76 | 2.5 | 0.0015 | 610000 | no binding (tested: 50 nM) | – | 3.9 | no binding (tested: 50 nM) | – | – | –
3 | B3 | 0.71 | 6 | 0.012 | 2e+06 | no binding (tested: 50 nM) | no binding (tested: 50 nM) | 4.2 | – | – | – | –
4 | B4 | 0.56 | 1.6 | 0.0017 | 1e+06 | no binding (tested: 50 nM) | – | 5.6 | no binding (tested: 50 nM) | no binding (tested: 50 nM) | – | –
5 | B5 | 1.04 | – | – | – | no binding (tested: 50 nM) | no binding (tested: 50 nM) | 1.1 | no binding (tested: 50 nM) | no binding (tested: 50 nM) | – | –
6 | B6 | 1.09 | 1.5 | 0.0025 | 1.7e+06 | – | – | 1.4 | – | no binding (tested: 50 nM) | no binding (tested: 50 nM) | no binding (tested: 50 nM)
7 | B7 | 0.91 | 8.3 | 0.0056 | 670000 | no binding (tested: 50 nM) | no binding (tested: 50 nM) | 2.4 | – | – | – | –
8 | B8 | 1.24 | 0.64 | 0.0013 | 2e+06 | no binding (tested: 50 nM) | no binding (tested: 50 nM) | 1.3 | – | no binding (tested: 50 nM) | – | –
9 | B9 | 0.91 | 1.5 | 0.0035 | 2.4e+06 | no binding (tested: 50 nM) | no binding (tested: 50 nM) | 2.2 | no binding (tested: 50 nM) | no binding (tested: 50 nM) | – | –
10 | B10 | 0.89 | 0.97 | 0.0056 | 5.8e+06 | no binding (tested: 50 nM) | no binding (tested: 50 nM) | 1.3 | no binding (tested: 50 nM) | no binding (tested: 50 nM) | – | –
11 | B11 | 0.75 | 4.1 | 0.0064 | 1.6e+06 | no binding (tested: 50 nM) | – | 42 | no binding (tested: 50 nM) | – | – | –
12 | B12 | 1 | – | – | – | no binding (tested: 50 nM) | no binding (tested: 50 nM) | 0.88 | no binding (tested: 50 nM) | no binding (tested: 50 nM) | – | –
13 | B13 | 0.81 | 11 | 0.0087 | 790000 | no binding (tested: 50 nM) | no binding (tested: 50 nM) | 2.3 | – | – | – | –
